According to patent US12433883B2, “Covalent modification and controlled delivery of mu opioid receptor antagonists” (Allegheny Singer Research Institute, priority 2019, dated 2025):

Test system: opioid-dependent mice
Conditions: free naloxone 8 mg/kg, data collected for 6 hours

C=CCN1CC[C@]23c4c5ccc(O)c4O[C@H]2C(=O)CC[C@@]3(O)[C@H]1C5 [free naloxone, naloxone]
POW-related behavior: significant POW-related behavior
